# Some of the results follow.
# Tested on: HSkMC (human skeletal muscle cells)
# Experiment: cytotoxicity call (relative viability < 0.9)
# Settings: 10 µM
row,SMILES,cytotoxicity call
1,C[C@@H]1CN([C@H](C)CO)C(=O)c2cc(NC(=O)Cc3ccccc3)ccc2O[C@@H](C)CCCCO[C@H]1CN(C)C(=O)CCC(F)(F)F,inactive
2,Cc1noc(C)c1NC(=O)N(C)C[C@@H]1Oc2ncc(Br)cc2C(=O)N([C@@H](C)CO)C[C@H]1C,inactive
3,C[C@@H]1CN([C@@H](C)CO)C(=O)Cc2cc(NC(=O)Nc3ccc(C(F)(F)F)cc3)ccc2O[C@@H]1CN(C)C(=O)Nc1ccccc1,active
4,COc1ccc(S(=O)(=O)Nc2ccc3c(c2)C(=O)N(C)C[C@@H](OC)[C@H](C)CN(C)[C@H](C)CO3)cc1,inactive
5,COc1ccc(S(=O)(=O)N(C)C[C@H]2OCCCC[C@H](C)Oc3ccc(NC(=O)NC4CCCCC4)cc3C(=O)N([C@H](C)CO)C[C@H]2C)cc1,inactive
6,Cc1cc(C(=O)Nc2cccc3c2O[C@@H](CN(C)S(=O)(=O)c2ccc(F)cc2)[C@@H](C)CN([C@H](C)CO)C3=O)n(C)n1,inactive
7,COc1ccccc1C(=O)Nc1ccc2c(c1)C(=O)N(C)[C@H]1CC[C@@H](CC(=O)NCCc3ccncc3)O[C@@H]1CO2,inactive
8,CCOC(=O)c1c(CNCCN(CC)CC)n(-c2ccccc2)c2cc(Br)c(OC)cc12,inactive
9,CC(=O)N1CC(=O)N(c2cnn(C)c2)C[C@]12CCN(C(=O)c1cnc(C)cn1)C2,inactive
10,O=C1OCc2cc(-n3cnnn3)ccc21,inactive
11,O=C1CC[NH][Zn][O]C(=O)[C@H](Cc2cnc[nH]2)N1,inactive
12,CCN(CC)c1ccc(N2CC=C[C@@]34O[C@@H]5/C=C\CCCOC(=O)[C@@H]5[C@H]3C(=O)N(CCO)[C@@H]4C2=O)cc1,inactive
13,C[C@H]1CN([C@@H](C)CO)C(=O)c2c(c3ccccc3n2C)-c2ccccc2CO[C@@H]1CN(C)CC1CCCCC1,inactive
14,C[C@H]1CN([C@@H](C)CO)C(=O)c2cc(-c3cccc(C#N)c3)cnc2O[C@@H]1CN(C)C(=O)c1cnccn1,inactive
15,C[C@H]1CCCCO[C@H](CN(C)Cc2ccc3c(c2)OCO3)[C@@H](C)CN([C@@H](C)CO)C(=O)c2cc(NS(=O)(=O)c3ccc(Cl)cc3)ccc2O1,inactive
16,C[C@@H]1CN([C@H](C)CO)C(=O)c2cc(NC(=O)Nc3cccc4ccccc34)ccc2O[C@@H]1CN(C)Cc1ccc(C(=O)Nc2ccccc2N)cc1,inactive
17,C[C@H]1CN([C@@H](C)CO)C(=O)Cc2cc(NC(=O)Cc3ccccc3)ccc2O[C@H]1CN(C)S(=O)(=O)c1cn(C)cn1,inactive
18,C[C@@H]1CN([C@@H](C)CO)C(=O)CCCn2cc(nn2)CO[C@H]1CN(C)S(=O)(=O)c1ccc(-c2ccccc2)cc1,inactive
19,C[C@H](CO)N1C[C@H](C)[C@@H](CN(C)S(=O)(=O)c2ccccc2)Oc2ccc(NS(=O)(=O)c3ccc(F)cc3)cc2C1=O,inactive
20,C[C@H](CO)N1C[C@H](C)[C@H](CN(C)C(=O)Nc2ccc(C(F)(F)F)cc2)OCCCC[C@H](C)Oc2ccc(NC(=O)Nc3ccc(C(F)(F)F)cc3)cc2C1=O,active

row,SMILES,cytotoxicity call
1,COc1cc(C)c2c(=O)c(-c3ccccc3)coc2c1,inactive
2,COc1ccc(CN(C)C[C@H]2Oc3ccc(NS(C)(=O)=O)cc3CC(=O)N([C@H](C)CO)C[C@@H]2C)cc1,inactive
3,C[C@@H]1CN([C@@H](C)CO)C(=O)c2cc(NS(=O)(=O)c3cccs3)ccc2O[C@H]1CN(C)CC1CC1,inactive
4,C[C@@H]1CCCCO[C@H](CN(C)Cc2ccc(Cl)c(Cl)c2)[C@@H](C)CN([C@H](C)CO)C(=O)c2cc(NC(=O)Nc3cccc4ccccc34)ccc2O1,inactive
5,Clc1ccc(C2=Nc3cccc4cccc(c34)N2)cc1,inactive
6,CC#CCOC(=O)C1=CCCN(C)C1,inactive
7,CN(C)CC(=O)N1[C@@H]2Cn3c(ccc(-c4ccncc4)c3=O)[C@H]1[C@@H](C(=O)NC1CCC1)[C@@H]2CO,inactive
8,CCC1(c2ccccc2)NC(=O)N(C)C1=O (stereo not given),inactive
9,O=C(NC1CCCCC1)[C@@H]1C(c2ccc(Cl)cc2)=C(S(=O)(=O)c2ccccc2)C(=O)N1Cc1ccc(-c2ccccc2)cc1,inactive
10,C[C@@H]1CN([C@H](C)CO)C(=O)c2c(c3ccccc3n2C)-c2ccccc2CO[C@H]1CN(C)C(=O)Nc1cccc(F)c1,inactive
11,N#CCC(=O)NN,inactive
12,Cc1ccc(S(=O)(=O)Nc2ccc3c(c2)C(=O)N([C@@H](C)CO)C[C@H](C)[C@@H](CN(C)C(=O)NC2CCCCC2)OCCCC[C@H](C)O3)cc1,inactive
13,C[C@@H]1CN([C@H](C)CO)C(=O)c2cc(NC(=O)Nc3cccc4ccccc34)ccc2O[C@@H](C)CCCCO[C@H]1CN(C)C,inactive
14,COc1ccc(NC(=O)N(C)C[C@H]2Oc3ccc(NC(=O)Nc4cccc5ccccc45)cc3C(=O)N([C@H](C)CO)C[C@H]2C)cc1,inactive
15,CN(C)C(=O)C[C@H]1CC[C@H](NC(=O)C2CC2)[C@H](CO)O1,inactive
16,N/C(=N/O)c1cnc2n(c1=O)CCS2,inactive
17,COc1cccc(NC(=O)C[C@@H]2CC[C@H]3[C@@H](COc4ccc(NC(=O)C5CCOCC5)cc4C(=O)N3C)O2)c1,inactive
18,CCCC#Cc1cnc2c(c1)C(=O)N([C@@H](C)CO)C[C@H](C)[C@@H](CN(C)S(=O)(=O)c1cn(C)cn1)O2,inactive
19,CC(C)NC(=O)N(C)C[C@H]1Oc2ccc(NS(=O)(=O)c3ccc(F)cc3)cc2C(=O)N([C@H](C)CO)C[C@H]1C,inactive
20,C[C@H]1CCCCO[C@H](CN(C)Cc2ccc(C(F)(F)F)cc2)[C@@H](C)CN([C@@H](C)CO)C(=O)c2cc(NS(=O)(=O)c3cccs3)ccc2O1,inactive

# — the antibiotic and cytotoxicity screens of Wong et al. (2023)
